Drawing on PubChem BioAssay AID463173 (ICCB-Longwood Screening Facility, Harvard Medical School, 2010), this text covers survival for 89 compounds.

About 1,700 (3.3%) of roughly 52,000 compounds were called active. Rule as the data show it: active = survival mostly below about 52% (no sharp cut-off); inactive = mostly above about 56%. The list shows a part of the results.

The assay has as its system Wild type. Put plainly: S. aureus survival, RN4220 and DeltatarO strains – OD600, teichoic acid synthesis inhibitors, primary screen (AID 463173). Particulars: S. aureus RN4220 wild type/DeltatarO growth, OD600, 18 h, hits give low values, screened at 18.75 µg/mL (by protocol).
Consider `Cc1ccc(C(=O)Nc2ccc(F)cc2)cc1S(=O)(=O)N1CCCCCC1`, for which the survival was inactive: 88%.

`Cc1cccc(C)c1OCc1cc(=O)n2c(-c3ccccc3)csc2n1`: the survival is inactive: 17%.

Regarding `Cn1nc(-c2ccc(OCC(=O)Nc3cccc(C(F)(F)F)c3)cc2)c2ccccc2c1=O`, the survival was inactive: 64%.

Regarding `O=C1CS(=O)(=O)C2(C(=O)Nc3ccccc32)N1c1cccc(Cl)c1` (centres undefined), the survival is inactive: 78%.

Turning to `COc1cccc2c1cc1c(=O)n(CC(=O)N3CCN(c4ccccc4F)CC3)nc(C)n12`, the survival is inactive: 85%.

Take `CCOc1ccc(NC(=O)CCCc2nc(-c3cccc(OC)c3)no2)cc1`: the survival was inactive: 87%.

Regarding `Cc1ccc(CNC(=O)c2sc3nc(C)cc(C)c3c2-n2cccc2)cc1`, the survival was inactive: 98%.

`COc1ccc2oc(=O)c(-c3nnc(-c4ccccc4)o3)cc2c1`: the survival is inactive: 110%.

For `N#CCCn1nc(-c2ccccc2)cc1-c1ccccc1`, the survival is inactive: 113%.

For `COc1ccc2[nH]c(=O)c(CN(C(=O)c3cccc(Cl)c3)c3ccccc3OC)cc2c1`, the survival was inactive: 81%.

As to `COc1ccc(S(=O)(=O)NCCc2csc3nc(-c4ccc(Cl)cc4)nn23)cc1C`, the survival was inactive: 78%.

For `CS(=O)(=O)N1CCc2cc(S(=O)(=O)NCc3ccccc3Cl)ccc21`, the survival is inactive: 72%.

`CC(=O)Nc1ccccc1OCc1cc(=O)n2c3c(sc2n1)CCCC3`: the survival is inactive: 120%.

As for `Cn1c2ccccc2c2cnn(CC(=O)NCc3ccc(Cl)cc3)c(=O)c21`, the survival is inactive: 92%.

As to `Cc1cccc(Cn2c(C)c(C)c3cc(C(=O)NCc4ccco4)ccc32)c1`, the survival was inactive: 78%.

On to `COC(=O)CN(c1ccccn1)S(=O)(=O)c1ccccc1`, for which the survival was inactive: 99%.

`Cc1ccc(Sc2c(C)nn(C(=O)COc3ccccc3)c2C)cc1`: the survival was active: 9%.

On to `CC1=C(c2ccc(F)cc2)S(=O)(=O)N=C1N1CCC(C(=O)NCCc2ccco2)CC1`, for which the survival is inactive: 129%.

Turning to `Cn1cnc(S(=O)(=O)N2CCC(C(=O)NCc3ccccc3)CC2)c1`, the survival was inactive: 88%.

Take `COc1ccc(-c2nc(Cn3c(SCc4cccc(Cl)c4)nc4ccncc43)c(C)o2)cc1`: the survival is inactive: 132%.

Take `O=C(CN1CCN(Cc2ccc(F)cc2Cl)S1(=O)=O)Nc1ccc(F)cc1`: the survival was inactive: 159%.

Consider `Cc1cccc(-n2c(-c3ccco3)nc3c(cnn3-c3ccccc3C)c2=O)c1`, for which the survival is inactive: 132%.

As for `COc1ccccc1NC(=O)CSc1nc2ccccc2c(=O)n1CCC(=O)NC1CCCCC1`, the survival was inactive: 82%.

In the case of `Cc1ccc(C(c2sc3nc(-c4ccco4)nn3c2O)N2CCOCC2)cc1` (centres undefined), the survival was inactive: 77%.

`COC(=O)c1cc2c(cc1NC(=O)c1c(C)nn(-c3ccc(C)cc3)c1-n1cccc1)OCO2`: the survival was inactive: 80%.

Take `CCOC(=O)c1c(S(=O)(=O)N2CCCC(C(=O)N(C)Cc3ccccc3)C2)c(C)n(C)c1C` (centres undefined): the survival was inactive: 73%.

Regarding `COc1cc(NC(=O)Cn2ccn(Cc3ccccc3OC)c(=O)c2=O)cc(OC)c1`, the survival is inactive: 84%.

`CCOc1ccc(NC(=O)Cn2c(=O)oc3cc(S(=O)(=O)NC4CCCC4)ccc32)cc1`: the survival is inactive: 81%.

On to `Cc1ccc(NC(=O)Cn2c(C)cc(C)c(C#N)c2=O)cc1`, for which the survival is inactive: 73%.

On to `Cc1nn(C(=O)c2ccccc2)c(C)c1Sc1ccc(Cl)cc1`, for which the survival was active: 6%.

As for `Clc1cc2c(cc1Cl)Nc1cc(Cl)c(Cl)cc1N2`, the survival was inactive: 68%.

As for `Cc1ccc(Cn2nc(C)c(NC(=O)c3cc(-c4ccc(F)cc4)on3)c2C)cc1`, the survival is inactive: 87%.

Consider `COc1ccccc1N1CCN(CC(=O)c2ccc(F)cc2)CC1`, for which the survival was inactive: 110%.

On to `Cc1ccccc1NC(=O)C1CCC(CNS(=O)(=O)c2ccc3c(c2)C(C)(C)C(=O)N3C)CC1` (centres undefined), for which the survival was inactive: 88%.

`CCOc1ccc(CCNC(=O)c2cn(C)c3ccc(S(=O)(=O)N4CCOCC4)cc3c2=O)cc1OCC`: the survival was inactive: 67%.

For `CCN(CC)c1ccc2cc(C(=O)Nc3cccc(OC)c3)c(=O)oc2c1`, the survival was inactive: 100%.

For `Cc1cc(NS(=O)(=O)c2ccc(NC(=O)c3ccccc3F)cc2)nc(C)n1`, the survival is inactive: 71%.

In the case of `Cc1ccc(-n2ncc3c(N(C)Cc4ccccc4)ncnc32)cc1`, the survival was inactive: 85%.

Regarding `Cc1cccc(OCC(=O)NCC2(N3CCN(C)CC3)CCCCC2)c1C`, the survival is inactive: 107%.

In the case of `O=c1oc(-c2ccco2)nc2ccccc12`, the survival was inactive: 100%.

Turning to `COc1ccc(OCc2ccc(-c3nc(C#N)c(N4CCC(C)CC4)o3)o2)cc1`, the survival is inactive: 73%.

As for `O=C(CSc1nnc(Cc2ccccc2)o1)c1ccccc1`, the survival was inactive: 98%.

As to `COc1cccc(C(=O)Nc2cc(C)on2)c1`, the survival was inactive: 115%.

Consider `Cc1ccc(NC(=O)c2ccc3snnc3c2)cc1Cl`, for which the survival is inactive: 118%.

On to `CCc1ccc(S(=O)(=O)c2nnn(-c3ccc(F)cc3)c2N)cc1`, for which the survival is inactive: 76%.

In the case of `C=C(C)Cn1c(SCC(=O)Nc2cc(C)ccc2C)nc2sc3c(c2c1=O)CCCC3`, the survival was inactive: 121%.

As to `COc1cc(OC)cc(C(=O)N2CCC(C(=O)NCCc3ccccc3)CC2)c1`, the survival was inactive: 105%.

Take `COc1ccc(-c2ccnc3[nH]n(-c4ccccc4)c(=O)c23)cc1`: the survival was inactive: 88%.

In the case of `CCC(=O)N1CCc2cc(Br)cc(S(=O)(=O)CCC(=O)N3CCN(c4ccccc4OC)CC3)c21`, the survival was inactive: 84%.

Take `CCOC(=O)c1ccc(N2CCN(c3ccc(F)cc3)CC2)c(NC(=O)Nc2cccc(OC)c2)c1`: the survival is inactive: 67%.

As for `COc1ccc(OCC(=O)Nc2ccc3c(c2)OCO3)cc1`, the survival was inactive: 113%.

`COc1ccccc1N1CCN(S(=O)(=O)c2ccc3[nH]c4c(c3c2)CCCC4)CC1`: the survival was inactive: 71%.

In the case of `CCOc1cc(-c2nnc(SCC(=O)NCc3ccccc3)nc2-c2ccc(OC)c(OCC)c2)ccc1OC`, the survival is inactive: 93%.

`COc1ccc(/C=C\c2onc(C)c2S(=O)(=O)N2CCC(C(=O)Nc3ccc(Cl)cc3)CC2)cc1`: the survival was inactive: 77%.

Regarding `COc1ccc(-c2ccc(Nc3ccc(C(=O)N4CCCCCC4)cc3)nn2)cc1`, the survival was inactive: 120%.

For the compound `COc1ccc(C(=O)N2CC(=O)Nc3ccc(C)cc3C2c2ccccc2)c(OC)c1` (centres undefined), the survival is inactive: 74%.

On to `Cc1ccc(-n2ncc(C(=O)N3CCCCC3)c2C2CCN(C(=O)OC(C)(C)C)CC2)cc1C`, for which the survival was inactive: 67%.

Regarding `CCc1ccc(NC(=O)C2CCCN(S(=O)(=O)c3ccc4c(c3)CCCN4C(C)=O)C2)cc1` (centres undefined), the survival was inactive: 71%.

For `CC(=O)c1ccc(NC(=O)Cn2c(=O)c3cccn3c3ccccc32)cc1`, the survival was inactive: 94%.

For `Cc1ccc(NC(=O)Cn2c(=O)n(CCC(=O)N3CCc4ccccc4C3)c(=O)c3ccccc32)cc1`, the survival was inactive: 93%.

Consider `Cc1cc(C)cc(S(=O)(=O)Nc2cccc(-c3ccc(N4CCOCC4)nn3)c2)c1`, for which the survival is inactive: 117%.

Consider `COc1ccc(Cn2c(C(=O)O)c(CNCCc3cccs3)c3ccc(C)cc32)cc1`, for which the survival was inactive: 77%.

On to `COc1ccccc1CNC(=O)c1ccc2c(c1)N(Cc1cccc(Cl)c1)C(=O)c1ccccc1S2(=O)=O`, for which the survival is active: 10%.

For the compound `Cc1ccc(Cn2c(C(=O)O)c(CNC3CCCCCC3)c3ccc(C)cc32)cc1`, the survival was inactive: 74%.

Consider `CC(C)(C)C(=O)NCCc1nc2ccccc2n1CCCCOc1ccc(Cl)cc1`, for which the survival was inactive: 28%.

Turning to `Cc1oc2ncn(CC(C)C)c(=O)c2c1C(=O)Nc1cc(F)ccc1F`, the survival was inactive: 65%.

As to `COc1ccc(-n2nc3c(N4CCCC(C(=O)NCc5cccc(F)c5)C4)nnc(C)c3c2C)cc1` (centres undefined), the survival is inactive: 67%.

Consider `NNc1ccc2nnc(C(F)(F)F)n2n1`, for which the survival is inactive: 109%.

As for `COc1ccc(-c2nc(CNS(=O)(=O)c3ccccc3)cs2)cc1`, the survival was inactive: 96%.

As to `COc1cccc(CNC(=O)c2cc3c(s2)-c2c(C)cccc2OC3)c1`, the survival was inactive: 87%.

Take `Cc1ccc(C)c(OCCn2cc(C(=O)c3ccco3)c3ccccc32)c1`: the survival was inactive: 108%.

For the compound `CCn1c(CNC(=O)C23CC4CC(CC(C4)C2)C3)nnc1SCC(=O)Nc1ccccc1`, the survival is inactive: 77%.

As to `CC(C)(C)NC(=S)Nc1ccc2nccnc2c1`, the survival was inactive: 105%.

As to `COc1ccccc1C(=O)NC1(C(F)(F)F)C(=O)Nc2c1c(=O)[nH]c(=O)n2-c1ccccc1` (centres undefined), the survival is inactive: 80%.

For `Cc1oc2ncn(C)c(=O)c2c1C(=O)N1CCN(c2ccccc2)CC1`, the survival is inactive: 86%.

Take `O=C(Oc1ccc(F)cc1)c1nc(SCc2ccccc2F)ncc1Cl`: the survival was inactive: 90%.

On to `Cn1c(=O)c2c([nH]c(=O)n2Cc2ccc(Cl)cc2Cl)n(C)c1=O`, for which the survival is inactive: 72%.

For the compound `Cc1ccc2c(c1)-c1nc(-c3ccc4c(c3)NC(=O)CO4)cc(-c3ccc(Cl)cc3)c1CO2`, the survival is inactive: 72%.

In the case of `CC1CCCN(CCCNC(=O)c2cn(C)c3ccc(S(=O)(=O)N(C)C4CCCCC4)cc3c2=O)C1` (centres undefined), the survival was inactive: 87%.

In the case of `Cc1ccc(NS(=O)(=O)c2ccc3nc(-c4ccccc4)[nH]c3c2)c(Cl)c1`, the survival is inactive: 60%.

As to `Cc1ccc2nc(N3CCN(C(=O)C4CC4)CC3)sc2c1`, the survival was inactive: 79%.

For `CCCc1c(C)c2ccc(O)c(CN3CCN(c4ccc(F)cc4)CC3)c2oc1=O`, the survival was inactive: 92%.

For `COc1ccccc1CNC(=O)CN1C(=O)CSc2ccc(S(=O)(=O)N3CCCCC3)cc21`, the survival is inactive: 83%.

As for `COC(=O)c1c(Oc2ccc(C(C)=O)cc2)nnc(-c2ccccc2)c1-c1ccccc1`, the survival was inactive: 95%.

`CCN(c1ccccc1)c1ncnc2c1cnn2-c1ccc(C)cc1C`: the survival is inactive: 66%.

As to `CC1=C(C(=O)N2CCN(c3cccc(C(F)(F)F)c3)CC2)C2(CCCCC2)OC1=O`, the survival was inactive: 123%.

With `CCOC(=O)c1ccccc1NC(=O)c1cc2c(=O)oc3ccc(C)cc3c2s1`, the survival was inactive: 86%.

As to `O=C1CS/C(=N/c2nc(-c3ccccc3)cs2)N1`, the survival is inactive: 128%.

Take `Cc1ccc(NC(=O)Cn2cc3c(n2)CCCCC3)cc1`: the survival is inactive: 90%.
